Data as given in PubChem BioAssay AID463173 (ICCB-Longwood Screening Facility, Harvard Medical School, 2010).
Hit rate of the full screen: of about 52,000 compounds, about 4,300 (8.3%) were called active. No stated cut-off is given here; in the data, active means survival mostly below about 52% (no sharp cut-off); inactive means mostly above about 56%. The list shows a part of the results.

System: DeltatarO mutant
Experiment: S. aureus survival, RN4220 and DeltatarO strains – OD600, teichoic acid synthesis inhibitors, primary screen (AID 463173)
Details: S. aureus RN4220 wild type/DeltatarO growth, OD600, 18 h, hits give low values, screened at 18.75 µg/mL (by protocol)

SMILES	survival
CCc1ccc(CNC(=O)c2ccc(-c3nc(CSc4ccc(C)cc4)c(C)o3)cc2)cc1	inactive: 67%
CCc1ccccc1-n1cnc2cc(C(=O)NC3CCCCCC3)ccc21	inactive: 49%
O=C(Nc1ccccc1Cl)[C@H](CSCc1ccccc1)N1Cc2ccccc2C1=O	inactive: 58%
COc1ccccc1N1CCN(S(=O)(=O)c2ccc(F)c(C(=O)Nc3ccc(Cl)cc3C(F)(F)F)c2)CC1	inactive: 126%
O=C(c1ccc2c(c1)CCN2S(=O)(=O)c1ccccc1)N1CCN(c2ccccc2F)CC1	inactive: 52%
CCc1ccc2occ(CC(=O)Nc3ccc(OC)c(Cl)c3)c2c1	inactive: 88%
CCOc1ccc(C(=O)Oc2c(Sc3ccccc3)c(C)nn2C(C)(C)C)cc1OCC	inactive: 57%
Cc1nc(SCC(=O)Nc2ccc(C)c(Cl)c2)cc(-c2ccccc2)n1	inactive: 46%
COc1ccc(CN(Cc2ccco2)C(=O)COc2ccccc2OC)cc1	inactive: 74%
CC(=O)c1ccc(NC(=O)Nc2sc3nc4n(c(=O)c3c2C)CCC(C)CC4)cc1 (stereo not drawn)	inactive: 78%
CC(C)Oc1ccc(CNC(=O)c2sc3ncccc3c2-n2cccc2)cc1	active: 46%
COc1ccc(-n2nc(C(=O)Nc3ccc(C(C)=O)cc3)nc2-c2ccccc2)cc1	active: 49%
COc1ccc(-c2nnc(SC(C)C(=O)O)o2)cc1 (stereo not drawn)	inactive: 148%
CSc1ccc(-c2nc3cccc(C)n3c2Nc2ccc3c(c2)OCO3)cc1	inactive: 83%
O=C(CN1C(=O)CSc2ccc(S(=O)(=O)N3CCCC3)cc21)NCc1ccccc1Cl	inactive: 87%
CC1(C)Cc2ccccc2C(=NCCC(=O)O)N1	inactive: 79%
CCCCNC(=O)CCc1c(C)nc2cc(-c3ccccc3)nn2c1C	inactive: 81%
CS(=O)(=O)Nc1ccc(C2=NN(S(C)(=O)=O)C(c3ccc4c(c3)OCO4)C2)cc1 (stereo not drawn)	inactive: 77%
CC(=O)N1CCCc2cc(S(=O)(=O)N3CCCC(C(=O)NC(C)C)C3)ccc21 (stereo not drawn)	inactive: 79%
Cc1ccc(OCC(=O)Nc2c(C(=O)c3ccc(Cl)cc3)oc3ccccc23)cc1C	inactive: 119%

SMILES	survival
Cc1[nH]c2ccccc2c1C1(O)C(=O)N(Cc2ccccc2)c2ccc(Cl)cc21 (stereo not drawn)	active: 24%
Cc1cc(C)cc(OCCSc2nc3ccc(NC(=O)COc4ccccc4)cc3s2)c1	inactive: 58%
Cc1ccc(OCC(=O)Nc2nonc2-c2ccc(Br)cc2)cc1C	inactive: 57%
COc1ccc(-c2nnc(SCCOc3ccccc3C)o2)cc1OC	inactive: 64%
Cc1cn(C)c(CC(=O)Nc2ccc(F)cc2Cl)c1C(=O)O	inactive: 87%
O=S(=O)(c1ccc(Cl)cc1)c1nc(-c2cccs2)oc1SCc1ccccc1F	inactive: 66%
Cc1cc(C(F)F)n2ncc(C(=O)N3CCCCC3)c2n1	inactive: 85%
O=C(COc1ccccc1)N/N=C/c1ccccc1	inactive: 86%
CCc1ccc(NC(=O)Cn2c(=O)n(CCCC(=O)NCc3ccc4c(c3)OCO4)c(=O)c3ccccc32)cc1	active: 93%
CCS(=O)(=O)NCC(c1ccco1)N1CCN(c2ccc(F)cc2)CC1 (stereo not drawn)	inactive: 71%
CCOC(=O)c1c(S(=O)(=O)N2CCCC(C(=O)N3CCN(c4cc(C)ccc4C)CC3)C2)c(C)n(C)c1C (stereo not drawn)	inactive: 83%
Cc1ccc2c(c1)N(Cc1cccc(C(F)(F)F)c1)C(=O)C(C)O2 (stereo not drawn)	inactive: 105%
CCn1c(SCC(=O)c2ccc(C)cc2)nnc1C1CC1	inactive: 66%
CCOC(=O)C(CC)N1CCN(Cc2ccc(F)cc2)C(=O)C1=O (stereo not drawn)	inactive: 85%
COc1ccc(-c2ccc(NS(=O)(=O)c3cc(C)c(C)cc3C)cc2)nn1	inactive: 83%
CCn1nc(C)c2c(-c3ccccc3)cc(=O)n(C(C)C(=O)Nc3cc(C)ccc3C)c21 (stereo not drawn)	inactive: 73%
COc1ccc(N2CCN(C(=O)C(C)n3nc(C)c4sc5ccccc5c4c3=O)CC2)cc1 (stereo not drawn)	inactive: 106%
CCc1ccc(NC(=O)Cn2nc(SC)c(S(=O)(=O)c3ccc(OC)cc3)c2N)cc1	inactive: 118%
CCOC(=O)c1c(NC(=O)C2c3ccccc3Oc3ccccc32)sc2c1CCC(CC)C2 (stereo not drawn)	inactive: 52%
CCCCC(CC)CNC(=O)CCCCn1c(=O)[nH]c2ccsc2c1=O (stereo not drawn)	inactive: 63%

SMILES	survival
COC(=O)c1sc(N2C(=O)c3oc4ccc(C)cc4c(=O)c3C2c2ccc(O)c(OC)c2)nc1C (stereo not drawn)	inactive: 180%
COc1ccc(CCNc2nc(SCc3ccccc3F)nc3ccccc23)cc1OC	inactive: 94%
COC(=O)c1ccc(C(=O)OC)c(NC(=O)c2c(-c3ccccc3)noc2C)c1	inactive: 147%
COc1ccc(OCc2nnc(SCC(=O)NCc3ccco3)o2)cc1	inactive: 85%
COC(=O)c1nnn(CC(=O)Nc2c(C)cccc2C)c1N	inactive: 87%
COc1cc(CN(C(=O)Nc2cccc(Cl)c2)c2ccccn2)cc(OC)c1OC	inactive: 68%
CC(=O)c1cccc(NC(=O)CCn2nc(C)c(S(=O)(=O)N(C)C)c2C)c1	inactive: 88%
S=c1[nH]nc(CNc2cccc(Cl)c2)o1	inactive: 65%
Cc1ccc(C(=O)NCC(c2cccs2)S(=O)(=O)c2ccccc2)cc1C (stereo not drawn)	inactive: 125%
CC(C)Nc1nc2c(S(=O)(=O)c3cccc(Cl)c3)nnn2c2ccsc12	inactive: 70%
CC(C)CCNC(=O)c1ccc2nc(CCc3ccccc3)oc2c1	inactive: 49%
C=CCc1ccccc1OCc1nc2ccc(C)cc2[nH]1	inactive: 65%
Cc1ccccc1NC(=O)CC1NCCNC1=O (stereo not drawn)	inactive: 144%
COc1ccc(-n2ncc(C(=O)N3CCN(C4CCCCC4)CC3)c2C2CCN(C(=O)OC(C)(C)C)CC2)cc1	inactive: 89%
Cn1c(=O)n(CC(=O)O)c(=O)c2c1nc1n2CCCN1c1ccc(Cl)cc1	inactive: 97%
CCN(CC)S(=O)(=O)c1ccc2c(c1)c(=O)c(C(=O)NCCc1ccccc1)cn2C	inactive: 85%
CCOC(=O)Cc1c(C)nc2cc(-c3ccc(C(C)(C)C)cc3)nn2c1C	active: -4%
Cc1csc2nc(COc3ccc(NC(=O)C(C)C)cc3)cc(=O)n12	inactive: 98%
